Measurements taken from PMC7599729.
Results are given in words; binding and its absence hold for the method and conditions named. Binding seen in cells or lysates may run through a third protein. Some binding calls cover weakened binding; strength is not graded here. Sequences can lack the tags named with a protein.

Protein sequences, listed by entry. Tags and fused reporters are not part of them.
UniProt P17383: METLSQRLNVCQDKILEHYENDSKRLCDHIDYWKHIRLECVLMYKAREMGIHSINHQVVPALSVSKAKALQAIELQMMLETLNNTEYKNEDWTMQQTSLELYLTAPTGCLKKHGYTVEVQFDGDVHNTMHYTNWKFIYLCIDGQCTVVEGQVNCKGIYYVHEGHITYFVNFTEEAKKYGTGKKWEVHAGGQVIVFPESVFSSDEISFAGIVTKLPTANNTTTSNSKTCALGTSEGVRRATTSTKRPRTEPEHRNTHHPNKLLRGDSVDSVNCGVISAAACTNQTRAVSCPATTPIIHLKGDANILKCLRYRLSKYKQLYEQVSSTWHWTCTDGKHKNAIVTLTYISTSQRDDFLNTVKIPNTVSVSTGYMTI

T1: FLAG-SMC6 (UniProt Q96SB8)
T1 sequence: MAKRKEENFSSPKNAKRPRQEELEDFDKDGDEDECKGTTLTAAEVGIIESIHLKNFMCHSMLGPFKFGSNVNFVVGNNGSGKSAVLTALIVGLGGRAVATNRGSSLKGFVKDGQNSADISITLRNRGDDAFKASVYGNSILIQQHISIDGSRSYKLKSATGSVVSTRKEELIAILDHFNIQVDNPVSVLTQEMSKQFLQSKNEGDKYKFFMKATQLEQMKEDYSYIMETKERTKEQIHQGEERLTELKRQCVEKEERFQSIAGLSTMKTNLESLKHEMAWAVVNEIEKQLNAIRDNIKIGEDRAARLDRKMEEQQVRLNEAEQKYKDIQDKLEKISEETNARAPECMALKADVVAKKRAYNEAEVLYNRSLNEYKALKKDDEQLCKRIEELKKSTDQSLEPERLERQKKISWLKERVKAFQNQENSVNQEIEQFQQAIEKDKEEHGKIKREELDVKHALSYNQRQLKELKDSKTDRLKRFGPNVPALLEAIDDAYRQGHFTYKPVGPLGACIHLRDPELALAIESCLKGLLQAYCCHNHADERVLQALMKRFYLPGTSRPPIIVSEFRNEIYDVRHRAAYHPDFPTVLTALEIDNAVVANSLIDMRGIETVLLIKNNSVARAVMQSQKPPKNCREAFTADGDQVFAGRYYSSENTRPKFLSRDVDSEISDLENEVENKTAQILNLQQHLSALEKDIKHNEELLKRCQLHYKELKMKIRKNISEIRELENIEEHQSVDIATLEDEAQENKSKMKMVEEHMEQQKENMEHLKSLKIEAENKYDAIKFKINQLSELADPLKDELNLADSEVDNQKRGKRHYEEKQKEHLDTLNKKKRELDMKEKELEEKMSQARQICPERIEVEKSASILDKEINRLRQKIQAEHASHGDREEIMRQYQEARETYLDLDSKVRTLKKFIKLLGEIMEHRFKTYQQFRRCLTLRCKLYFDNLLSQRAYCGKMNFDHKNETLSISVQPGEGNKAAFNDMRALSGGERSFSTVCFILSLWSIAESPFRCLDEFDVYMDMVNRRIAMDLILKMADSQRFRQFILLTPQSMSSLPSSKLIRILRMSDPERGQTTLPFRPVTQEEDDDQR

T2: endogenous SMC6 (human (endogenous in HEK293TT)) (UniProt Q96SB8)
T2 sequence: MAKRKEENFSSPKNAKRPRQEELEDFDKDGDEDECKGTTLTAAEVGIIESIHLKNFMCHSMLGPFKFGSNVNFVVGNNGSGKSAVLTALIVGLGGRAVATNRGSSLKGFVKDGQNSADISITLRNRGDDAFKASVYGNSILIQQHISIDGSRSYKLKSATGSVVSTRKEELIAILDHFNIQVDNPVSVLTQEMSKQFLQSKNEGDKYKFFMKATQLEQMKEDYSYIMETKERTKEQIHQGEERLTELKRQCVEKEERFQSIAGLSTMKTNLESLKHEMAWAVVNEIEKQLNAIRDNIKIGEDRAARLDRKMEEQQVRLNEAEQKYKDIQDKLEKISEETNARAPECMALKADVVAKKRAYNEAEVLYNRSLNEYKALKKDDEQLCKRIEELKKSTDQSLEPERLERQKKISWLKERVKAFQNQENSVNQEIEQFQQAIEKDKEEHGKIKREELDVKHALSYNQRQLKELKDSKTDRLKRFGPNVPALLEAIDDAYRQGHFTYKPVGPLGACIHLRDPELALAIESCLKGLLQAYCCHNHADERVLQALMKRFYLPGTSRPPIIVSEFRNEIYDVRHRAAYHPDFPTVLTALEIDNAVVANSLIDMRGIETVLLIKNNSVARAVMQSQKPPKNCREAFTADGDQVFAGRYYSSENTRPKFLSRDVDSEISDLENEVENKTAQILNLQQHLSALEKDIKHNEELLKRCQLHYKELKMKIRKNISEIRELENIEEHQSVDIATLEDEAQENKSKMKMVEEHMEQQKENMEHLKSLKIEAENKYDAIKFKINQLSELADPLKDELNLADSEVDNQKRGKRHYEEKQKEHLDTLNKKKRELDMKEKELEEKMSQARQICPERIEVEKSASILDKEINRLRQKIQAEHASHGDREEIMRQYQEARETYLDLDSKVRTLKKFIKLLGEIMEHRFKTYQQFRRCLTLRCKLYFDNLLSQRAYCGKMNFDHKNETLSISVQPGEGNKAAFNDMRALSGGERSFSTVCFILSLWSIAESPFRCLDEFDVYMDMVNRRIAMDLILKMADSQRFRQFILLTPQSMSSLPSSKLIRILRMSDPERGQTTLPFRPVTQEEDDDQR

T3: HPV-31 HA-E1 (HPV-31) (UniProt P17382)
T3 sequence: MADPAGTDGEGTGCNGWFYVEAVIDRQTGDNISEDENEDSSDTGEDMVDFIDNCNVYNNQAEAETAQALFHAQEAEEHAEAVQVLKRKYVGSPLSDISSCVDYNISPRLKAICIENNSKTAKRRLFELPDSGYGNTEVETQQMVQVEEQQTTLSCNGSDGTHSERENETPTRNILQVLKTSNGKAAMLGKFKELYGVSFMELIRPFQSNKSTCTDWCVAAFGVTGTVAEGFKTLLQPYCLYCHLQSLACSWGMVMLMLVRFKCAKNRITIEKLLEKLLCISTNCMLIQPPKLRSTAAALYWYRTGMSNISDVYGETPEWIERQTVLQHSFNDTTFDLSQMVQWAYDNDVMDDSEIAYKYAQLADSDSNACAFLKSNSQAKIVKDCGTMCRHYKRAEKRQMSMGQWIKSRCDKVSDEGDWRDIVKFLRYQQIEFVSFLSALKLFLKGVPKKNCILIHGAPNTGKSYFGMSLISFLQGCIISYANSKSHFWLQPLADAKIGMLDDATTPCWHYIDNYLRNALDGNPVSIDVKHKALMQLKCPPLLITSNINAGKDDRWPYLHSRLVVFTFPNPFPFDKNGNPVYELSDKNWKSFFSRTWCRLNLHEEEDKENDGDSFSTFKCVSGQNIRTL


Assays:
[1] = biological target: HPV-31 V5-E2 (HPV-31) (UniProt P17383); experiment: co-IP; HEK293TT cells transfected with FLAG-SMC6 and HPV-31 V5-E2; 48 h; NP-40 lysis buffer, benzonase; IP with rabbit anti-V5 on protein A/G sepharose
[2] = biological target: T1, FLAG-SMC6; experiment: co-IP; HEK293 cells transfected with FLAG-SMC6, HPV-31 V5-E2 or both; 48 h; lysis in 0.5% NP-40/150 mM NaCl/50 mM Tris-HCl pH 8/10% glycerol, benzonase; IP with M2 anti-FLAG agarose overnight at 4 °C; washes alternating 0.5 M and 150 mM salt
[3] = biological target: T1, FLAG-SMC6; experiment: co-IP; HEK293TT cells transfected with FLAG-SMC6, full-length FLAG-E2 or truncated FLAG-E2; 48 h; NP-40 lysis buffer, benzonase; IP with rabbit anti-SMC6 or rabbit IgG
[4] = biological target: T2, endogenous SMC6 (human (endogenous in HEK293TT)); experiment: co-IP; HEK293TT cells transfected with FLAG-SMC6, HPV-31 FLAG-E2 and HPV-31 HA-E1 alone or in combination; 48 h; NP-40 lysis buffer, benzonase; IP with rabbit anti-SMC6 or rabbit IgG
[5] = biological target: T3, HPV-31 HA-E1 (HPV-31); experiment: co-IP; HEK293TT cells transfected with FLAG-SMC6, HPV-31 V5-E2 and HPV-31 HA-E1; 48 h; NP-40 lysis buffer, benzonase; IP with rat anti-HPV-31 E1
[6] = biological target: T1, FLAG-SMC6; experiment: co-IP; HEK293TT cells transfected with FLAG-SMC6, HPV-31 FLAG-E2 and HPV-31 HA-E1 alone or in combination; 48 h; NP-40 lysis buffer, benzonase; IP with rabbit anti-SMC6 or rabbit IgG
[7] = biological target: full-length HPV-31 FLAG-E2 (HPV-31) (UniProt P17383); experiment: as above

| Binder | binding [1] | binding [2] | binding [3] | binding [4] | binding [5] | binding [6] | binding [7] |
| --- | --- | --- | --- | --- | --- | --- | --- |
| NSE3 (protein, UniProt Q96MG7 1-304) MLQKPRNRGRSGGQAERDRDWSHSGNPGASRAGEDARVLRDGFAEEAPSTSRGPGGSQGSQGPSPQGARRAQAAPAVGPRSQKQLELKVSELVQFLLIKDQKKIPIKRADILKHVIGDYKDIFPDLFKRAAERLQYVFGYKLVELEPKSNTYILINTLEPVEEDAEMRGDQGTPTTGLLMIVLGLIFMKGNTIKETEAWDFLRRLGVYPTKKHLIFGDPKKLITEDFVRQRYLEYRRIPHTDPVDYEFQWGPRTNLETSKMKVLKFVAKVHNQDPKDWPAQYCEALADEENRARPQPSGPAPSS | no binding | binds | binds | binds | no binding |  |  |
| HPV-31 HA-E1 (protein, UniProt P17382 1-629) MADPAGTDGEGTGCNGWFYVEAVIDRQTGDNISEDENEDSSDTGEDMVDFIDNCNVYNNQAEAETAQALFHAQEAEEHAEAVQVLKRKYVGSPLSDISSCVDYNISPRLKAICIENNSKTAKRRLFELPDSGYGNTEVETQQMVQVEEQQTTLSCNGSDGTHSERENETPTRNILQVLKTSNGKAAMLGKFKELYGVSFMELIRPFQSNKSTCTDWCVAAFGVTGTVAEGFKTLLQPYCLYCHLQSLACSWGMVMLMLVRFKCAKNRITIEKLLEKLLCISTNCMLIQPPKLRSTAAALYWYRTGMSNISDVYGETPEWIERQTVLQHSFNDTTFDLSQMVQWAYDNDVMDDSEIAYKYAQLADSDSNACAFLKSNSQAKIVKDCGTMCRHYKRAEKRQMSMGQWIKSRCDKVSDEGDWRDIVKFLRYQQIEFVSFLSALKLFLKGVPKKNCILIHGAPNTGKSYFGMSLISFLQGCIISYANSKSHFWLQPLADAKIGMLDDATTPCWHYIDNYLRNALDGNPVSIDVKHKALMQLKCPPLLITSNINAGKDDRWPYLHSRLVVFTFPNPFPFDKNGNPVYELSDKNWKSFFSRTWCRLNLHEEEDKENDGDSFSTFKCVSGQNIRTL |  |  |  | no binding |  | no binding | binds |
| FLAG-SMC6 (protein, UniProt Q96SB8 1-1091) MAKRKEENFSSPKNAKRPRQEELEDFDKDGDEDECKGTTLTAAEVGIIESIHLKNFMCHSMLGPFKFGSNVNFVVGNNGSGKSAVLTALIVGLGGRAVATNRGSSLKGFVKDGQNSADISITLRNRGDDAFKASVYGNSILIQQHISIDGSRSYKLKSATGSVVSTRKEELIAILDHFNIQVDNPVSVLTQEMSKQFLQSKNEGDKYKFFMKATQLEQMKEDYSYIMETKERTKEQIHQGEERLTELKRQCVEKEERFQSIAGLSTMKTNLESLKHEMAWAVVNEIEKQLNAIRDNIKIGEDRAARLDRKMEEQQVRLNEAEQKYKDIQDKLEKISEETNARAPECMALKADVVAKKRAYNEAEVLYNRSLNEYKALKKDDEQLCKRIEELKKSTDQSLEPERLERQKKISWLKERVKAFQNQENSVNQEIEQFQQAIEKDKEEHGKIKREELDVKHALSYNQRQLKELKDSKTDRLKRFGPNVPALLEAIDDAYRQGHFTYKPVGPLGACIHLRDPELALAIESCLKGLLQAYCCHNHADERVLQALMKRFYLPGTSRPPIIVSEFRNEIYDVRHRAAYHPDFPTVLTALEIDNAVVANSLIDMRGIETVLLIKNNSVARAVMQSQKPPKNCREAFTADGDQVFAGRYYSSENTRPKFLSRDVDSEISDLENEVENKTAQILNLQQHLSALEKDIKHNEELLKRCQLHYKELKMKIRKNISEIRELENIEEHQSVDIATLEDEAQENKSKMKMVEEHMEQQKENMEHLKSLKIEAENKYDAIKFKINQLSELADPLKDELNLADSEVDNQKRGKRHYEEKQKEHLDTLNKKKRELDMKEKELEEKMSQARQICPERIEVEKSASILDKEINRLRQKIQAEHASHGDREEIMRQYQEARETYLDLDSKVRTLKKFIKLLGEIMEHRFKTYQQFRRCLTLRCKLYFDNLLSQRAYCGKMNFDHKNETLSISVQPGEGNKAAFNDMRALSGGERSFSTVCFILSLWSIAESPFRCLDEFDVYMDMVNRRIAMDLILKMADSQRFRQFILLTPQSMSSLPSSKLIRILRMSDPERGQTTLPFRPVTQEEDDDQR | binds |  |  |  | no binding |  |  |
| endogenous SMC6 (protein, UniProt Q96SB8 1-1091) MAKRKEENFSSPKNAKRPRQEELEDFDKDGDEDECKGTTLTAAEVGIIESIHLKNFMCHSMLGPFKFGSNVNFVVGNNGSGKSAVLTALIVGLGGRAVATNRGSSLKGFVKDGQNSADISITLRNRGDDAFKASVYGNSILIQQHISIDGSRSYKLKSATGSVVSTRKEELIAILDHFNIQVDNPVSVLTQEMSKQFLQSKNEGDKYKFFMKATQLEQMKEDYSYIMETKERTKEQIHQGEERLTELKRQCVEKEERFQSIAGLSTMKTNLESLKHEMAWAVVNEIEKQLNAIRDNIKIGEDRAARLDRKMEEQQVRLNEAEQKYKDIQDKLEKISEETNARAPECMALKADVVAKKRAYNEAEVLYNRSLNEYKALKKDDEQLCKRIEELKKSTDQSLEPERLERQKKISWLKERVKAFQNQENSVNQEIEQFQQAIEKDKEEHGKIKREELDVKHALSYNQRQLKELKDSKTDRLKRFGPNVPALLEAIDDAYRQGHFTYKPVGPLGACIHLRDPELALAIESCLKGLLQAYCCHNHADERVLQALMKRFYLPGTSRPPIIVSEFRNEIYDVRHRAAYHPDFPTVLTALEIDNAVVANSLIDMRGIETVLLIKNNSVARAVMQSQKPPKNCREAFTADGDQVFAGRYYSSENTRPKFLSRDVDSEISDLENEVENKTAQILNLQQHLSALEKDIKHNEELLKRCQLHYKELKMKIRKNISEIRELENIEEHQSVDIATLEDEAQENKSKMKMVEEHMEQQKENMEHLKSLKIEAENKYDAIKFKINQLSELADPLKDELNLADSEVDNQKRGKRHYEEKQKEHLDTLNKKKRELDMKEKELEEKMSQARQICPERIEVEKSASILDKEINRLRQKIQAEHASHGDREEIMRQYQEARETYLDLDSKVRTLKKFIKLLGEIMEHRFKTYQQFRRCLTLRCKLYFDNLLSQRAYCGKMNFDHKNETLSISVQPGEGNKAAFNDMRALSGGERSFSTVCFILSLWSIAESPFRCLDEFDVYMDMVNRRIAMDLILKMADSQRFRQFILLTPQSMSSLPSSKLIRILRMSDPERGQTTLPFRPVTQEEDDDQR |  |  |  |  | no binding |  |  |
